Results taken from PubChem BioAssay AID588855 (National Center for Advancing Translational Sciences (NCATS), 2011).
Among all 410,000 compounds or so, about 5,000 (1.2%) were called active. The shares of active, inactive and inconclusive entries below differ from those in the screen. Calls come from the whole dose curve; as a rule, active = well fitted inhibition curve with a large enough effect; inconclusive = small, poorly fitted or top-dose-only effect; inactive = no such curve, though single readings can be large or run the other way. Potencies beside an inconclusive call are fits to weak or partial responses and may not hold up.

Test: qHTS for Inhibitors of TGF-b; note: nearly all actives have a fitted effect of over 65% in size
Settings: HepG2 CAGA-GFP TGF-b/SMAD3 reporter, GFP fluorescence, 18 h, TGF-beta stimulated, 500 pg/mL final; series mostly up to 46.1 µM; activity, negative = inhibition: at the top concentration
In short: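 Read-out: total well GFP (ex488/em500-530) summed from mean per-cell fluorescence. Cells: HEPG2 CAGA-GFP, 1% FBS DMEM, 18 h at 37 degrees C with 500 pg/mL final TGF-beta. Unstimulated wells served as the full-inhibition control; stimulated DMSO wells = 0%.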
% is set by controls: 0 for no effect and ±100 for the full control effect; potency is the fitted concentration of half-maximal effect; tags give direction and shape of the fitted curve.

SMILES	Potency	activity, negative = inhibition
Cc1ccc(Cl)cc1N1CCN(S(=O)(=O)c2ccc3c(c2)C(C(C)C)C(=O)N3)CC1 (stereo unspecified)	inconclusive: 22.4 µM [inhibitor, single point]	–
O=C(COCc1cc(-c2cccs2)on1)NCc1ccc(F)cc1	inconclusive: 5.01 µM [inhibitor, single point]	–
Cc1[nH]c2ccccc2c1C1(O)C(=O)N(C(C)C)c2ccccc21 (stereo unspecified)	–	inactive: -4.08%
COc1cc2ncnc(NCc3cccc(F)c3F)c2cc1OC	inconclusive: 35.5 µM [inhibitor, single point]	–
COc1ccccc1C(CNC(=O)C(C)(C)Oc1ccc(Cl)cc1)N1CCCC1 (stereo unspecified)	inconclusive: 8.91 µM [inhibitor, partial curve, poor fit]	–
O=S(=O)(c1ccc(-c2csc(=Nc3ccc(F)cc3)n2CCCCCCO)cc1)N1CCCC1	inconclusive: 10 µM [inhibitor, partial curve, poor fit]	–
Cc1cccc(OCC(=O)Nc2ccc3c(c2)nc(CN2CCCCC2)n3C)c1	inconclusive: 35.5 µM [inhibitor, single point]	–
COc1cccc([C@@H]2Oc3ccc(Br)cc3C(=O)[C@H]2OC(=O)NC2CCCC2)c1	inconclusive: 11.2 µM [inhibitor, partial curve, poor fit]	–
O=C(CCl)N1N=C(c2cccs2)CC1c1ccco1 (stereo unspecified)	active: 11.2 µM	–
Oc1cccc2cc(-c3ccncc3)cnc12	active: 3.55 µM	–
Cc1nc2ccc(S(=O)(=O)NC(CC(C)C)C(=O)NCc3ccc(Cl)cc3)cc2s1 (stereo unspecified)	inconclusive: 12.6 µM [inhibitor, partial curve, poor fit]	–
C/C(=N\N=C(N)N)c1ccc(Cl)cc1Cl	inconclusive: 35.5 µM [inhibitor, single point]	–
CCOc1ccc(S(=O)(=O)NCc2nc3cccnc3n2Cc2ccccc2OC)cc1	inconclusive: 6.31 µM [inhibitor, partial curve, poor fit]	–
CCOC(=O)C1CCN(C(=O)c2ccc3c(c2)sc2nc(-c4ccc(OC)cc4)cn23)CC1	inconclusive: 20 µM [inhibitor, partial curve, poor fit]	–
CCCC1=C(C(=O)OCC)C(c2ccc(OC)c(CSc3ccccn3)c2)C(C#N)=C(N)O1 (stereo unspecified)	–	inactive: 8.73%
CC(C)CC(=O)N1CCN(C(=O)c2ccc(-c3ccccc3)cc2)CC1	inconclusive: 14.1 µM [inhibitor, single point]	–
CN(C)CCCN(C(=O)c1ccc(S(=O)(=O)N2CCc3ccccc3C2)cc1)c1nc2ccc(F)cc2s1	inconclusive: 35.5 µM [inhibitor, single point]	–
CCCCNC(=O)CSc1nc2n[nH]c(C)c2c(=N)n1-c1cccc(C)c1	inconclusive: 0.282 µM [inhibitor, full curve, poor fit]	–
CCN(C(=S)Nc1cc(S(=O)(=O)N2CCOCC2)ccc1Cl)c1cccc2ccccc12	inconclusive: 11.2 µM [inhibitor, single point]	–
CCN(CC)S(=O)(=O)c1cccc(NC(=O)CNc2cccc(S(=O)(=O)N3CCOCC3)c2)c1	inconclusive: 14.1 µM [inhibitor, partial curve, poor fit]	–
C=CCn1c(=O)c(C(=O)Nc2ccccc2O)c(O)c2ccccc21	inconclusive: 15.8 µM [inhibitor, single point]	–

SMILES	Potency	activity, negative = inhibition
COc1cc(/C=N/NC(=O)c2[nH]nc3c2CCc2ccccc2-3)ccc1O	inconclusive: 11.2 µM [inhibitor, partial curve, poor fit]	–
CCN1CCN(c2cc(C)c3cc(NC(=O)/C=C/c4cccc(OC)c4OC)ccc3n2)CC1	inconclusive: 20 µM [inhibitor, single point]	–
Cc1ccc(-c2cc3nccc(-c4cc([N+](=O)[O-])ccc4O)n3n2)cc1	inconclusive: 7.94 µM [inhibitor, partial curve]	–
COc1ccc(N2CCN(C(=O)c3cccnc3)CC2)c([N+](=O)[O-])c1	–	inactive: -6.13%
COc1cccc(CN2CCC(C(=O)N3CCC(C)CC3)CC2)c1	inconclusive: 8.91 µM [inhibitor, partial curve, poor fit]	–
CN(c1ccc(F)cc1)S(=O)(=O)N1CCCC(C(=O)NCCc2ccccc2)C1 (stereo unspecified)	inconclusive: 14.1 µM [inhibitor, single point]	–
O=C(N/N=C/c1ccccc1Cl)c1ccncc1	–	inactive: 9.57%
COc1ccccc1S(=O)(=O)Cc1ccc(C(=O)N2CCN(c3ccccc3)CC2)o1	inconclusive: 12.6 µM [inhibitor, partial curve, poor fit]	–
Cc1ccc(-c2noc(CN(C(=O)CCCCCN3C(=O)c4ccccc4C3=O)C(C)C)n2)cc1	inconclusive: 35.5 µM [inhibitor, single point]	–
O=C(Nc1cccc2ccccc12)c1ccc([N+](=O)[O-])s1	active: 8.91 µM	–
CCOc1ccc(NC(=O)Nc2cc3c(cc2N2CCCCC2)n(C)c(=O)n3C)cc1	inconclusive: 11.2 µM [inhibitor, partial curve, poor fit]	–
CCOc1ccc(NCc2nnc(SCC(=O)Nc3nc(-c4ccccc4)cs3)n2-c2ccccc2)cc1	inconclusive: 35.5 µM [inhibitor, single point]	–
COc1ccc(-c2noc(-c3cc(-c4ccc(F)cc4)n[nH]3)n2)cc1	inconclusive: 15.8 µM [inhibitor, single point]	–
COC(=O)c1ccc(CSc2nnc(-c3c[nH]c4ccccc34)n2-c2ccccc2)cc1	inconclusive: 7.94 µM [inhibitor, partial curve]	–
Brc1ccc(Nc2c3c(nc4ncnn24)CCC3)cc1	inconclusive: 14.1 µM [inhibitor, partial curve]	–
COc1ccc(-c2nc(CN3CCCCC3c3nccn3C)c(C)o2)c(C)c1C (stereo unspecified)	active: 20 µM	–
COc1ccc(C(C)NC(=O)c2ccncc2)cc1 (stereo unspecified)	–	inactive: -17.8%
CCOCCCNC(=O)c1ccc(Cn2c(=O)c3cccn3c3cccnc32)cc1	inconclusive: 2.82 µM [inhibitor, partial curve, poor fit]	–
COc1ccc(C)cc1NC(=O)C1CCCN(S(=O)(=O)c2cccc3cccnc23)C1 (stereo unspecified)	inconclusive: 35.5 µM [inhibitor, single point]	–
CCOC(=O)c1cc(S(=O)(=O)Nc2c(C)cc(C)cc2C)[nH]n1	inconclusive: 14.1 µM [inhibitor, partial curve, poor fit]	–
Cc1ccc(C(C(=O)NC2CCCC2)N(C(=O)Cc2cccs2)c2ccc(C)c(C)c2)o1 (stereo unspecified)	inconclusive: 14.1 µM [inhibitor, single point]	–

SMILES	Potency	activity, negative = inhibition
COc1ccc2cc(CN(C(=O)Nc3ccccc3OC)C3CCCC3)c(=O)[nH]c2c1	inconclusive: 22.4 µM [inhibitor, single point]	–
COc1cc(NC(=O)CN2CCCN(S(=O)(=O)c3ccc(F)cc3)CC2)cc(OC)c1	inconclusive: 6.31 µM [inhibitor, single point]	–
CCOc1ccccc1NC(=O)C(Sc1ccccc1)c1ccccc1 (stereo unspecified)	inconclusive: 35.5 µM [inhibitor, partial curve, poor fit]	–
O=C(Nc1ccccc1Br)c1cc(S(=O)(=O)NC2CCCCC2)ccc1F	inconclusive: 35.5 µM [inhibitor, single point]	–
Cc1ccc(C)c(NC(=O)CSc2nnc(NC(=O)C3CC3)s2)c1	inconclusive: 22.4 µM [inhibitor, single point]	–
Cc1cc(C)c(C)c(S(=O)(=O)N2CCN(c3ncnc4sc(C)c(C)c34)CC2)c1C	–	inactive: 10.8%
Cc1cc(C)c(C(=O)/C=C/c2cccc3ccccc23)c(=O)[nH]1	inconclusive: 35.5 µM [inhibitor, partial curve, poor fit]	–
COc1ccc(NC(=O)C2(C)CCN2Cc2ccc(SC)cc2)cc1OC (stereo unspecified)	–	inactive: -14.5%
COc1ccccc1NS(=O)(=O)c1cc(NC(=O)Cn2cnc3c2c(=O)n(C)c(=O)n3C)ccc1C	inconclusive: 5.62 µM [inhibitor, single point]	–
CCOC(=O)c1c(CN2CCN(c3ccccc3)CC2)oc2cc(Br)c(O)cc12	inconclusive: 12.6 µM [inhibitor, partial curve, poor fit]	–
C(=C\c1ccccc1)/CN1CCN(C(c2ccnc3ccccc23)c2nnnn2C2CCCCC2)CC1 (stereo unspecified)	active: 11.2 µM	–
COCCN=c1scc(-c2cc(OC)c(OC)c(OC)c2)n1/N=C/c1c(C)[nH]c2ccccc12	inconclusive: 10 µM [inhibitor, partial curve]	–
CCOc1ccccc1CNC(=O)c1cc2c(=O)n(Cc3ccco3)ccc2nc1C	inconclusive: 10 µM [inhibitor, partial curve]	–
COc1cccc(CNc2ncnc3cc(OC)c(OC)cc23)c1	–	inactive: 7.19%
CN(C)CCCN(C(=O)c1ccc(S(=O)(=O)N(C)C2CCCCC2)cc1)c1nc2ccc(Br)cc2s1	inconclusive: 35.5 µM [inhibitor, single point]	–
COc1ccccc1CN1C[C@@H]2C[C@@H](c3[nH]c4c(C)cccc4c3C)N3CCC[C@@]23C1=O	inconclusive: 8.91 µM [inhibitor, partial curve]	–
COc1cccc(NC(=O)C2(C)CCN2C(=O)CC2CCCC2)c1 (stereo unspecified)	–	inactive: -12.2%
O=C(COc1ccc(Cl)cc1)NCC(c1cccs1)S(=O)(=O)c1ccc(F)cc1 (stereo unspecified)	inconclusive: 25.1 µM [inhibitor, single point]	–
NC(=O)C1CCN(C(=O)c2cccc(S(=O)(=O)N3CCc4ccccc4C3)c2)CC1	inconclusive: 1.26 µM [inhibitor, full curve, poor fit]	–
